Some entries of the source have several records that differ or are many. This is not the full list of results. There may be further records. Some protein pairs were linked at several places, one record each.
Columns and labels:
Experiment in all cases: cross-linking mass spectrometry
Conditions in all cases: DSSO, not determined
[1] = biological target: MORF4L1 (UniProt Q9UBU8)
[2] = biological target: PHF12 (UniProt Q96QT6)
[3] = biological target: HDAC2 (UniProt Q92769)

HDAC2, Q92769, sequence (Q92769 whole entry): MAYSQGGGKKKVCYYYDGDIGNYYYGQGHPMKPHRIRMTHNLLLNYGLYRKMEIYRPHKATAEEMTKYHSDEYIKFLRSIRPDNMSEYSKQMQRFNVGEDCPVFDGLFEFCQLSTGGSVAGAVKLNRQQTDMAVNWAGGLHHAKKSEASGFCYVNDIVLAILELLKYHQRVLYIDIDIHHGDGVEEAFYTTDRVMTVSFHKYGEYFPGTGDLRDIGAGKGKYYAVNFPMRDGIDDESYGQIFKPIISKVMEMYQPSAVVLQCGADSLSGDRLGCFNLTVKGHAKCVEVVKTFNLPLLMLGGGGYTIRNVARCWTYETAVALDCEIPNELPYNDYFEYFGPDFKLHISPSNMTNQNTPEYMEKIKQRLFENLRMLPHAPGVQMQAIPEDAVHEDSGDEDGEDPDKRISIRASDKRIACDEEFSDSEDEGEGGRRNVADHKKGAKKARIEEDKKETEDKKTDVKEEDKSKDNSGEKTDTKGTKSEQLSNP
SIN3B, sequence (O75182 whole entry): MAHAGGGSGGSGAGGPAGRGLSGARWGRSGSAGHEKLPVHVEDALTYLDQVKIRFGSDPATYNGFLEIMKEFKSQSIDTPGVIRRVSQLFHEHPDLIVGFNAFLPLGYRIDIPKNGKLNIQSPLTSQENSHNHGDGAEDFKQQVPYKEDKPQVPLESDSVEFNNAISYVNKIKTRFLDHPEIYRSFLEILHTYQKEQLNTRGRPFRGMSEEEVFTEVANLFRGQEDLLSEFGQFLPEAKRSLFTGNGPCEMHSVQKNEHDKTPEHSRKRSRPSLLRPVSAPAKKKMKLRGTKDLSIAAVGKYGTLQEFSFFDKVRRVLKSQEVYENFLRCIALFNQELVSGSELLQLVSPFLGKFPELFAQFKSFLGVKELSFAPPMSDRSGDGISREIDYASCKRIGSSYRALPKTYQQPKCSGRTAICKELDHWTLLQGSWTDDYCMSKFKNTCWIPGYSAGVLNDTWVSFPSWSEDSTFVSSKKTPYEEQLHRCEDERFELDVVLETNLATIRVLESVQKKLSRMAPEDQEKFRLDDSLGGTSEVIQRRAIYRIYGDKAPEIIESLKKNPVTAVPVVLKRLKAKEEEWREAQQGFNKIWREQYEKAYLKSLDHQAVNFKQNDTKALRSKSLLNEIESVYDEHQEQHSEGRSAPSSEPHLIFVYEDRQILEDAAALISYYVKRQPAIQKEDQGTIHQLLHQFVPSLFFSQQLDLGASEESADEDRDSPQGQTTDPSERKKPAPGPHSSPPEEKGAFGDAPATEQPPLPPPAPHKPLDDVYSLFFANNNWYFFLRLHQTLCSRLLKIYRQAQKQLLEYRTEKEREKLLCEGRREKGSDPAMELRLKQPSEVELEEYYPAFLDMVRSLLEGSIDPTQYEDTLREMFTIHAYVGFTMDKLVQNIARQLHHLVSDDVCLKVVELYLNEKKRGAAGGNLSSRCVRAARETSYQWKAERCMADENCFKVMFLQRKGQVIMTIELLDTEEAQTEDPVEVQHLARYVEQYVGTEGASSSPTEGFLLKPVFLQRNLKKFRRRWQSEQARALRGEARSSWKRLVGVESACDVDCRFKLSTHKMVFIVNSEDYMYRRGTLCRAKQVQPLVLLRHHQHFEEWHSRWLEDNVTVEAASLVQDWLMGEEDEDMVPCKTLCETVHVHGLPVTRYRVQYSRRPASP
PHF12, Q96QT6, sequence (Q96QT6 whole entry): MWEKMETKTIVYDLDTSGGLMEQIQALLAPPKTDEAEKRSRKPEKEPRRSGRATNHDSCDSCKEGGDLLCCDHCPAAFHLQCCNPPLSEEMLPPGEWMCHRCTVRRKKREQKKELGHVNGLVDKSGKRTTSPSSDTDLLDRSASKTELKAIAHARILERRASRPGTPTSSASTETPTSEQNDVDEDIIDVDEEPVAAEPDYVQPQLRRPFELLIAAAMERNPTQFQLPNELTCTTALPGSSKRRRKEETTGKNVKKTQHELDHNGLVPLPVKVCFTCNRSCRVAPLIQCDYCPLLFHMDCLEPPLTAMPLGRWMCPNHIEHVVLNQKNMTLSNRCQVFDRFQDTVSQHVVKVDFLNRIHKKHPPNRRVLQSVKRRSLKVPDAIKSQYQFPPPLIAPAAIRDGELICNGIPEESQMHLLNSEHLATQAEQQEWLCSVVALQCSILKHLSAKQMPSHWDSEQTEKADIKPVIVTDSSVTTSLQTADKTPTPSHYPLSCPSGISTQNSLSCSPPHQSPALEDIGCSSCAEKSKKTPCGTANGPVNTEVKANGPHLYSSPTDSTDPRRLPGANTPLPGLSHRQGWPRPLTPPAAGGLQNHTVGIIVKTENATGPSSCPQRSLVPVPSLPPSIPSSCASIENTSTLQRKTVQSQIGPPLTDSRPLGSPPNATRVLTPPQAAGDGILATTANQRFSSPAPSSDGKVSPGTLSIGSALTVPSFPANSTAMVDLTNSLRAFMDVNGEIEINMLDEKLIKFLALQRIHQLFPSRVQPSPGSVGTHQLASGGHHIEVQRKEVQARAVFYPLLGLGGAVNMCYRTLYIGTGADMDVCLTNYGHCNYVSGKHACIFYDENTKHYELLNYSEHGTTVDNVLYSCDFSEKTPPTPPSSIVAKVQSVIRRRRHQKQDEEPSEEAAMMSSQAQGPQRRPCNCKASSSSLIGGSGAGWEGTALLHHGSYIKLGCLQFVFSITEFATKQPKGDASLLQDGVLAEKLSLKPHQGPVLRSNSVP
UniProt Q9UBU8, sequence (Q9UBU8 whole entry): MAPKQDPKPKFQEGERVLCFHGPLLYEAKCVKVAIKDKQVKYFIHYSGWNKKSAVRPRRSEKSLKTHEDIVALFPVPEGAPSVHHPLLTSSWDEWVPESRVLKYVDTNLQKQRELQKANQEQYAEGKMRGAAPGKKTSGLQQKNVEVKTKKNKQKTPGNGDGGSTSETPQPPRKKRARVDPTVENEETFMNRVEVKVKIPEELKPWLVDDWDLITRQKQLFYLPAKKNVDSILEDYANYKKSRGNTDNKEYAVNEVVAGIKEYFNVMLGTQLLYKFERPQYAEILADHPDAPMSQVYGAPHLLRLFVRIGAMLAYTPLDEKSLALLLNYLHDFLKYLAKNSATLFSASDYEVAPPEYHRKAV

Substance | cross-linked residues [1] | cross-linked residues [2] | cross-linked residues [3]
HDAC2, Q92769 | K75 - K117 and K75 - K127 and K75 - K136 and K75 - K143 and K75 - K218 and K221 - K117 and K243 - K8 and K243 - K143 and K284 - K111 and K284 - K127 and K439 - K143 and K439 - K148 and K439 - K249 and K451 - K111 and K451 - K136 and K451 - K249 and K452 - K111 and K474 - K111 and K474 - K148 and K481 - K117 and K481 - K249 | K75 - K45 and K75 - K378 and K221 - K373 and K221 - K378 and K243 - K242 and K439 - K373 and K439 - K378 and K462 - K373 and K468 - K373 | –
SIN3B, O75182 | K70 - K143 and K73 - K111 and K73 - K117 and K73 - K127 and K73 - K143 and K73 - K198 and K73 - K240 and K73 - K249 and K114 - K117 and K195 - K8 and K195 - K62 and K195 - K111 and K195 - K117 and K195 - K127 and K195 - K135 and K195 - K136 and K195 - K143 and K195 - K148 and K195 - K249 and K239 - K117 and K239 - K143 and K239 - K240 and K239 - K249 and K239 - K339 and K292 - K29 and K292 - K111 and K292 - K117 and K292 - K127 and K292 - K143 and K292 - K148 and K292 - K218 and K292 - K339 and K301 - K111 and K301 - K117 and K313 - K29 and K313 - K111 and K313 - K117 and K313 - K136 and K319 - K143 and K369 - K111 and K406 - K111 and K406 - K117 and K406 - K143 and K406 - K226 and K412 - K111 and K412 - K117 and K412 - K127 and K412 - K135 and K412 - K218 | K36 - K373 and K36 - K378 and K52 - K373 and K70 - K373 and K70 - K378 and K73 - K42 and K73 - K242 and K73 - K351 and K73 - K373 and K73 - K378 and K73 - K384 and K73 - K450 and K73 - K467 and K114 - K351 and K114 - K373 and K114 - K378 and K117 - K351 and K117 - K373 and K117 - K378 and K147 - K378 and K195 - K38 and K195 - K145 and K195 - K246 and K195 - K252 and K195 - K351 and K195 - K373 and K195 - K378 and K195 - K384 and K239 - K242 and K239 - K256 and K239 - K351 and K239 - K373 and K239 - K467 and K261 - K351 and K261 - K373 and K283 - K351 and K292 - K351 and K292 - K373 and K292 - K378 and K292 - K384 and K301 - K378 and K313 - K242 and K313 - K373 and K313 - K378 and K313 - K384 and K319 - K242 and K319 - K351 and K363 - K373 and K363 - K378 and K369 - K373 and K369 - K378 and K369 - K384 and K369 - K467 and K406 - K378 and K412 - K378 | K73 - K243 and K73 - K481 and K195 - K243 and K195 - K451 and K239 - K221 and K239 - K243 and K239 - K362 and K292 - K243 and K319 - K221 and K369 - K243 and K406 - K221 and K412 - K67 and K412 - K75 and K412 - K439 and K412 - K452
PHF12, Q96QT6 | K4 - K111 and K4 - K218 and K38 - K29 and K38 - K111 and K38 - K127 and K38 - K143 and K38 - K218 and K38 - K249 and K42 - K111 and K42 - K117 and K42 - K136 and K45 - K111 and K45 - K117 and K45 - K136 and K113 - K136 and K113 - K143 and K124 - K111 and K124 - K117 and K124 - K135 and K145 - K10 and K145 - K29 and K145 - K32 and K145 - K111 and K145 - K127 and K145 - K135 and K145 - K136 and K145 - K143 and K145 - K148 and K145 - K240 and K145 - K249 and K149 - K111 and K149 - K117 and K149 - K135 and K149 - K143 and K149 - K148 and K149 - K218 and K149 - K249 and K242 - K103 and K242 - K111 and K242 - K117 and K242 - K127 and K242 - K143 and K242 - K155 and K242 - K196 and K242 - K204 and K242 - K218 and K246 - K10 and K246 - K29 and K246 - K111 and K246 - K117 and K246 - K143 and K246 - K198 and K246 - K204 and K246 - K218 and K246 - K339 and K252 - K111 and K252 - K117 and K252 - K127 and K252 - K143 and K252 - K148 and K252 - K204 and K252 - K249 and K256 - K8 and K256 - K111 and K256 - K143 and K256 - K249 and K351 - K103 and K351 - K111 and K351 - K117 and K351 - K127 and K351 - K135 and K351 - K136 and K351 - K143 and K373 - K29 and K373 - K111 and K373 - K117 and K373 - K127 and K373 - K135 and K373 - K143 and K373 - K148 and K373 - K204 and K373 - K339 and K378 - K111 and K378 - K117 and K378 - K127 and K378 - K136 and K378 - K198 and K378 - K204 and K378 - K226 and K378 - K240 and K378 - K339 and K467 - K249 | – | –

Reference: publication PMC10156912
